# Measured values reported in the supplement of paper PMC9446081.
# Out of some 39,000 compounds screened, about 220 (0.56%) showed activity. Some of the results follow.
# System: Escherichia coli K-12 BW25113
# Assay: relative growth (OD600 normalised to plate interquartile mean) (fraction); higher = less growth inhibition, active = 0.2 or less
# Conditions: 50 µM; LB; incubation time: overnight (16-24 h)
# 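Further: static incubation at 37 °C against the wild-type strain, values averaged over two biological replicates.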
row,SMILES,relative growth
1,COc1cc2ccnc(CCCN)c2cc1OC,inactive: 0.993
2,COC(=O)C1=CO[C@@H](O[C@@H]2O[C@H](CO)[C@@H](O)[C@H](O)[C@H]2O)[C@@H]2[C@@](C)(O)[C@@H](OC(=O)/C=C/c3ccc(OC)c(OC)c3)C[C@]12O,inactive: 0.998
3,C[C@@H]1CN([C@@H](C)CO)C(=O)c2cc(NC(=O)c3ccccc3)ccc2O[C@@H](C)CCCCO[C@H]1CN(C)S(=O)(=O)c1ccc(F)cc1,inactive: 1
4,Cc1noc(C)c1NC(=O)Nc1ccc2c(c1)C(=O)N([C@@H](C)CO)C[C@H](C)[C@@H](CN(C)C(=O)NC(C)C)O2,inactive: 0.962
5,C[C@H](CO)N1C[C@H](C)[C@@H](CN(C)C(=O)Nc2ccc(C(F)(F)F)cc2)Oc2ccc(NC(=O)Cn3cnnn3)cc2CC1=O,inactive: 0.956
6,Cc1ccc(S[C@]2(C(=O)NCCCN(C)C)CC(=O)N(Cc3ccccc3C(F)(F)F)[C@@H]2c2ccc(CO)cc2I)cc1,inactive: 0.948
7,COc1ccc(NC(=O)Nc2cccc3c2O[C@@H](CN(C)Cc2ccc(Oc4ccccc4)cc2)[C@@H](C)CN([C@@H](C)CO)C3=O)cc1,inactive: 0.979
8,COCC(=O)Nc1ccc2c(c1)C(=O)N(C)C[C@H](OC)[C@H](C)CN(C(=O)Cc1cccnc1)[C@H](C)CO2,inactive: 0.988
9,Cc1ccc(S(=O)(=O)Nc2ccc3c(c2)C(=O)N([C@@H](C)CO)C[C@@H](C)[C@H](CN(C)Cc2ccccc2)OCCCC[C@@H](C)O3)cc1,inactive: 0.994
10,O=C(C[C@H]1CC[C@H]2[C@@H](COC[C@H](O)CN2C(=O)Nc2ccc(Cl)c(Cl)c2)O1)NCc1ccncc1,inactive: 0.917
11,C[C@@H]1CCCCO[C@@H](CN(C)S(=O)(=O)c2ccc(F)cc2)[C@@H](C)CN([C@H](C)CO)C(=O)c2cc(NC(=O)c3ccccc3)ccc2O1,inactive: 1.02
12,Cc1noc(C)c1NC(=O)N(C)C[C@H]1Oc2ccc(NS(=O)(=O)c3ccccc3)cc2C(=O)N([C@H](C)CO)C[C@@H]1C,inactive: 0.998
13,C[C@@H](NC(=O)c1ccccc1)C(=O)NN,inactive: 0.993
14,Cc1nc2c(C)cccc2c2c1COC2,inactive: 0.898
15,C[C@H]1CN([C@@H](C)CO)C(=O)Cc2cc(NS(C)(=O)=O)ccc2O[C@@H]1CN(C)S(=O)(=O)c1cn(C)cn1,inactive: 0.996
16,C[C@H]1CN([C@@H](C)CO)C(=O)Cc2cc(NC(=O)Cn3cnnn3)ccc2O[C@H]1CN(C)S(=O)(=O)c1cn(C)cn1,inactive: 0.985
17,O=c1c(O)c(-c2cc(O)c(O)c(O)c2)oc2cc(O)cc(O)c12,inactive: 1.05
